In the RNAGym collection of RNA variant scans (doi:10.1093/nar/gkz1192):
Read counts are not given, so values of variants with three or more changes are uncertain.

B1: CPEB3 Ribozyme (parent)
chain: UAACAGGGGGCCACAGCAGAAGCGUUCACGUCGCAGCCCCUGUCAGAUUCUGGUGAAUCUGCGAAUUCUGCUGUAUAUCUC

Variants of: B1
Test: self-cleavage, relative activity (ratio to wild type); higher = more cleavage; in vitro, sequencing
Method in brief: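 CPEB3 self-cleaving ribozyme mutant libraries were made by rounds of error-prone PCR, barcoded, and transcribed in vitro with T7 RNA polymerase for 5 hours at 37°C. Cleavage occurred during transcription and a 15 min DNase I step before EDTA stop. RNAs were reverse transcribed with template switching and Illumina-sequenced, with DNA sequencing mapping barcodes to variants. Relative activity is the variant's cleaved/total read fraction divided by wild type's (minimum 5 reads), averaged across three batches.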

Variant | self-cleavage
G7A A64G A75G | 0.06
G7A A21U A28U U54G A77U U80G | 0.05
G6A C12U A56G U60C C62A | 0.15
G6A A21G U25C C32A U60A U74C U80A | 0.05
G7A C14U U41C | 0.1
G6A G8U A13G A56U | 0.17
G6A U25G A28U C34U A65G U80C | 0.07
G6A U31A A57G U67C | 0.09
G7C G42A G61A C62U U69A A75G | 0.05
G6U A13U A35G A75G | 0.51
G6U U25C C32U U41A | 0.07
G6A A15G U41C G70A U72A | 0.1
G6A A15G U31C U49C | 0.23
G7A G16U U48C U51A U69G U72A U76A | 0.03
G6A C29U C40U U67A C81U | 0.1
G6A U69A U76C | 0.51
A5U U76C A77U | 1.14
G6U A18G U69C | 0.17
G6U A28G U54C | 0.37
G6U A18G A35U U72C | 0.17
G7A U31G A45G U69C | 0.06

Variant | self-cleavage
G6A C14G A20G U72A U76C | 0.15
G6A G19U U51C G52U G63A | 0.07
G6U A35U U60C U67A C68A U69A U80C | 0.04
G6C G22U A64U | 0.26
G6U A15G U72C | 0.51
G6A C17G A35G U41A C44G A45G G53U | 0.22
G6A G8A A15G U54G U60A U80C | 0.06
G7A C29G C34G G63U U72C | 0.05
G7U A18C A35U U43C U67A U72A | 0.05
G6A A47G U67A | 0.08
G7A G24A U67C U69G | 0.05
G7C U54C C59U | 0.19
G6U A35G U58C U69G U76C | 0.15
G6A A20U U25A U48A A65G U67C | 0.1
G6A A15U U49A A56U U67G | 0.09
G6A A21G U48C A65G | 0.16
G7C G9A G30U A45G G46U U80C | 0
G7A U67A U80C | 0.25
G6A A15U G22U A28G | 0.05
G7A U41C A45G A57G | 0.06
G7A C11A A18U C38A A56G U60A | 0.11

Variant | self-cleavage
G7U A20U U26A C37A A45G U49C | 0.03
G6U G8U U25A U31C | 0.22
G7U A18C G19U U31C U48C | 0.16
G7A U26C A45G | 0.1
G6U A13U G53A U78C | 0.13
G7U A15U A18G U80A | 0.05
G6U A21G U41C | 0.1
G6A A13U A65G | 0.13
G7C A20U U54G U60C U67C | 0.13
G6A A56U U67C | 0.07
G6A U41C U60C G73A | 0.08
G6A G9C A28U U54G U69A | 0.06
G6A C34U U51A | 0.26
G7A C23G A35U U54G A56U U69A U80A | 0.05
G6U U25C U41A U66C | 0.08
G6A U72C A77G | 0.63
G6U G8U A45U A56U U80C | 0.24
G7C A28G G53C A77G U80C | 0.14
G7A U25C A35G C62A U78C | 0.05
G6U U48A U60A U80A | 0.06
G6A G73A U74C | 0.95

Variant | self-cleavage
G6A A13G A57G | 0.17
G6U G7A A35C U51G U60C U66C U78C | 0.06
G7C A20U A21G A45U A75U | 0.13
G6A A28G A47G | 0.31
G7A G10A A18G U58C U67C U78C U80C | 0.05
G7C A20U U48C A75C | 0.05
G6A A47G A57G | 0.38
G6A G19U U48C A65G | 0.26
G7A A15U G16C U26C U80C | 0.37
A5U U51C G63A U74C | 1.17
G7C A15U U72C U78A | 0.2
G7A A56G U66A U69C | 0.04
G6U C23A U31C | 0.3
G6A C37G A64G U80C | 0.95
G6A U31A U60C U67C | 0.18
G6A A21U G33A C62U U67C | 0.14
G7A G9A U25A A45G U78C | 0.05
G6U G16C U26A U48A U78C | 0.05
G6A A35G U41C | 0.55
G6C A18G A20G U41C A64G A75G U78A | 0.02
G6C A57G A65U U69A U80C | 0.06
